Read counts are not given, so values of variants with three or more changes are uncertain.

B1: CPEB3 Ribozyme (parent)
chain: UAACAGGGGGCCACAGCAGAAGCGUUCACGUCGCAGCCCCUGUCAGAUUCUGGUGAAUCUGCGAAUUCUGCUGUAUAUCUC

The variants in the series derive from B1. Nature of the series: self-cleavage, relative activity (ratio to wild type); higher = more cleavage; in vitro, sequencing. The essentials:
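After error-prone PCR and barcoding, CPEB3 ribozyme mutant libraries were transcribed with T7 RNA polymerase at 37°C for 5 hours, then given 15 min with DNase I before an EDTA stop, and they cleaved during both steps. Reverse transcription with template switching preceded Illumina sequencing. Relative activity divides a variant's cleaved/total read fraction by the unmutated ribozyme's. At least 5 reads were required per variant, and three batches were averaged.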
Turning to G24A U41C U51G A64G U67A, the self-cleavage stood at 0.08. The value for G24A U25C C29A C59U G63A A64G U69C was 0.03; that for G24A C40U U43C U60C A64G U72C was 0.04; that for G24A C32U A56G was 0.42.

With C23U U49C G63A U80A, the self-cleavage was 0.05. As for G24A A28G C32U U58C, the self-cleavage was found to be 0.07. The value for G24U A35G A56G U72C U80C was 0.58; that for U25A A35U U48C U49A U67A U80C was 0.05; that for C23U C37G U43C C62A U69C U74C U80G was 0.07. To G24C A64G C68U belongs 0.16. The value for U25A C32U U67C was 0.12. For the variant G24A U41C U72C, the self-cleavage was determined as 0.19. In the case of C23U A28U A35G U41C U49C U72A, the self-cleavage turned out to be 0.07.

With G24A U25C G42A, the self-cleavage was determined as 0.29.

G24C U31A U43C G55A U69A U72C A77G: the self-cleavage was determined as 0.06. Take G24A C29U U43C A65U: the self-cleavage turned out to be 0.09. The value for C23U A35C A45C G63A U72C was 0.13. The value for U25A A45C U78C was 0.13; that for U25A A28G U60C A64G U80C was 0.17; that for U25A C29U A45G A47G U72A A75U was 0.08. As for G24A U69A U74C U80C, the self-cleavage is 0.08.

As to G24A A57G U60C U67C, the self-cleavage stood at 0.06. For G24A U41C U48C A57G U66A A75U, the self-cleavage turned out to be 0.12. As to U25A A64U U66A, the self-cleavage was found to be 0.12.

Take G24A U25C C50A: the self-cleavage worked out at 0.28. To G24C U26A U72C belongs 0.3. Regarding G24A U43C U49A, the self-cleavage came to 0.18.

In the case of G24U U25C G52C U60C U69C, the self-cleavage was 0.23. For U25A A35U C38U, the self-cleavage is 0.23. To C23U U43C A56G C68G U76G belongs 0.14; to C23U G24A U25C U41C A65U U72G, 0.08; to G24A A35G U60C, 0.15. As for G24A U25C U31C U49A G70C A75G, the self-cleavage is 0.09.

As to G24C U25C A35G A47G, the self-cleavage was found to be 0.04. Consider G24U A28C A35U U66C, for which the self-cleavage was determined as 0.17. The value for C23U A28G A47G U58C U69C was 0.07; that for G24A A45G A65G G73A was 0.23. The value for G24C C38G U49C U78C was 0.02; that for U25A A56U U60C was 0.16.

C23U U26C A56G U69C: the self-cleavage was found to be 0.36. Turning to G24A U26C A28G G73A A75G, the self-cleavage was determined as 0.23. The value for U25A A35C U60C was 0.13.

With C23U U51A A64G U69C U72A, the self-cleavage came out at 0.1. The value for G24A U41C A57G was 0.23; that for C23U U60C U76A was 0.08.

G24A U49C G52A U72A: the self-cleavage turned out to be 0.08. To U25A A64G U78C belongs 0.35. Take C23U U25C A47G: the self-cleavage was 0.11. As to U25A A28G G46A U74G, the self-cleavage is 0.04.

With U25A A47G U54C, the self-cleavage stood at 0.08. Consider U25A A35C G70A U80C, for which the self-cleavage was found to be 0.13. In the case of U25A A28U U31A, the self-cleavage turned out to be 0.16. For G24C U41C G53A U66C U74A, the self-cleavage came to 0.08. To G24A G52U U60C belongs 0.1; to U25A A47G U51C U80A, 0.09. To G24A A35G A57G belongs 0.16; to U25A A28G U41C U54C A57U U66C, 0.07; to G24A U51C U67C C71U U78C, 0.05. Turning to G24A A28U A56U, the self-cleavage worked out at 0.14.

Take U25A C29A A57G: the self-cleavage was 0.28.

As to C23U U25C C38U A56G, the self-cleavage is 0.08.

Consider C23U U43A A64G A65G U74C U76C, for which the self-cleavage was determined as 0.05. For G24U U48C U69A U78C C81U, the self-cleavage is 0.06. For U25A A56G U58G C59A, the self-cleavage worked out at 0.11. C23U U26A U69A: the self-cleavage was found to be 0.1. To U25A A35G U51C U67C belongs 0.08; to G24U A45G A56G U69C, 0.09.

In the case of G24A C29U C44A A47G A65C U67C, the self-cleavage turned out to be 0.05. The value for C23U G70A U72C was 0.39; that for G24A U26A A47G A65C was 0.19. The value for C23U U41C U43A U58C was 0.2; that for C23U U43C U54C U69C was 0.13; that for C23U A35G U69A U72C A77U was 0.21. For C23U C44U A56G, the self-cleavage came to 0.07. For G24A A47G U67C, the self-cleavage is 0.11. The value for G24A U25C G30U U48A was 0.37; that for U25A A28U U78C was 0.07. To G24A U26G A35G A45U C50U U51C U67A belongs 0.19. The value for G24A U31C U41C was 0.16; that for C23G U43C A47G was 0.18.

With G24U A65G U78A, the self-cleavage worked out at 0.12. On to C23U G52U A56U C68U U69C, for which the self-cleavage came to 0.27. Turning to U25A A28G U41A G61C G70C, the self-cleavage was determined as 0.28.

Consider G24A G30U U58C A77U, for which the self-cleavage worked out at 0.07.

U25A C32U A45G A65G: the self-cleavage is 0.13.

For the variant G24A U26C A28G, the self-cleavage was 0.19. Regarding C23U G33U U67C, the self-cleavage came to 0.08.

For the variant G24A U25C A28U A45G U60C, the self-cleavage worked out at 0.06.

G24A U26C A56U A57G A64G: the self-cleavage worked out at 0.07. To G24C A45C G52C belongs 0.16; to C23U C68A U74A, 0.1. For C23U A28G U48C U60A U66C A77U, the self-cleavage was determined as 0.11. Take G24A U41C A56U: the self-cleavage is 0.15. Consider G24U U25C U51A U60C U72C, for which the self-cleavage came to 0.07. To G24A U31G C40A U41C A45G A57G A64U belongs 0.06; to G24U U41C U58C, 0.18; to G24C C38A U41A U72C, 0.09. U25A A28G A35G: the self-cleavage came to 0.18. With G24C U41A U49C U69C, the self-cleavage is 0.14. To G24A C38U A47U belongs 0.1; to U25A A35G C39A, 0.15; to G24U U31G G73U, 0.32. The value for G24U U48C A56G was 0.34; that for C23U U41A G63C was 0.16.

U25A C29A U72A: the self-cleavage turned out to be 0.34. Take C23U U25C A57U U60C: the self-cleavage came out at 0.1.

For the variant C23U A28U U69G U80A, the self-cleavage was 0.12. The value for U25A A56G U72A U76C was 0.1. The value for G24C U49G A56G U67C was 0.24. On to C23G U54C U58G U60C A65G U72C, for which the self-cleavage worked out at 0.04. On to G24A A28G U41C A57G, for which the self-cleavage was determined as 0.05. Take C23U U25C A56U U58C U67C: the self-cleavage was 0.1. For C23U G30U U69A, the self-cleavage came out at 0.05. As for C23G U54C A75G, the self-cleavage was found to be 0.05. For the variant U25A A28G U41C A77G, the self-cleavage was 0.17. The value for G24A U26A A35G U48A was 0.08; that for C23U G52A U69C was 0.08.

Take G24A U31G C40A A57G A64U C71U U72C: the self-cleavage is 0.05. The value for C23U U41C U43C U49C U69C U76A U78C was 0.11. To G24A C29G A75G belongs 0.18; to C23U A35G U43C, 0.41; to G24A U26C U66C U69C U72C, 0.17. The value for U25A C29U U49C U54C U76A was 0.04. Regarding C23U A45G G70A, the self-cleavage stood at 0.05. The value for C23U C39U A45G U48A was 0.04. The value for U25A A45G A56G was 0.23; that for G24C U41C U51A U54A G63U was 0.09.

Turning to G24C A35U U48A, the self-cleavage is 0.17. The value for G24A U41A U66C was 0.08.

As for G24C A64G A65G U80C, the self-cleavage is 0.18.

Take U25A A35C U78C: the self-cleavage was found to be 0.16. To G24A U26C U66C belongs 0.41; to G24U U26C A35G U41A A65G C81U, 0.19; to C23U U26C A45U U60C U74C, 0.07. As to U25A A28U A77C, the self-cleavage is 0.41.

For the variant C23U G33U A45G, the self-cleavage was determined as 0.24.

Consider C23U A47G C81A, for which the self-cleavage stood at 0.11. The value for G24C U26C U48C U72G U78C was 0.07. Turning to U25A A56G U60G U69A, the self-cleavage worked out at 0.27. U25A A28G C32U A47U U60C U78C: the self-cleavage came to 0.04.

On to G24A U60C U80A, for which the self-cleavage is 0.15. With G24C U25C C34U A45U A47G U67C, the self-cleavage came to 0.08. The value for G24C G36U U43G U54A A56G U66C was 0.08; that for G24U A28G G30C U31C U48G U74C was 0.07. For G24A A47G U51G, the self-cleavage was found to be 0.2. To C23U A35U A47G U48A U58C belongs 0.09; to U25A A28G U67C, 0.45. To C23U U26C C38U belongs 0.19; to G24A U51C U66C, 0.15. To G24A U41C U67A belongs 0.15. As for G24A C40A A45U U48C U51C U58C A75G, the self-cleavage was 0.07. The value for C23U C32G U72C U78C was 0.06. To G24U U25C U49A A56U U69C belongs 0.07. For the variant C23U A56U A64G, the self-cleavage came out at 0.26. In the case of G24A U25G A35G A64G U80C, the self-cleavage worked out at 0.12. U25A C32U A57U: the self-cleavage worked out at 0.07. The value for C23U U31A U69C was 0.07. As for U25A A35G U41C U43C U60A U69C, the self-cleavage worked out at 0.02. As for U25A A45G U49A U67A U80C, the self-cleavage was 0.08. To G24A U25C C39A A45U U51A U54A A65G belongs 0.08; to C23U A35G A56G, 0.57. To G24A C37U A56G belongs 0.08; to C23U G52U A65U U72A, 0.12; to G24A C37A U54A, 0.08. The value for C23G U43C C62A A75U was 0.2; that for G24A A64G U67C U74C was 0.16. Regarding U25A C29U U48C A65G U74A, the self-cleavage is 0.08.
